In all, about 310,000 compounds went through this assay and about 2,200 (0.71%) showed an effect of 50% or more. The effect is printed as a negative number. The list shows a part of the results.
Molecular target: human ether-à-go-go-related gene (hERG) potassium channel (human, UniProt Q12809)
Assay: primary screen, population patch clamp on CHO cells stably expressing hERG

Chain of human ether-à-go-go-related gene (hERG) potassium channel (Q12809 whole entry, looked up): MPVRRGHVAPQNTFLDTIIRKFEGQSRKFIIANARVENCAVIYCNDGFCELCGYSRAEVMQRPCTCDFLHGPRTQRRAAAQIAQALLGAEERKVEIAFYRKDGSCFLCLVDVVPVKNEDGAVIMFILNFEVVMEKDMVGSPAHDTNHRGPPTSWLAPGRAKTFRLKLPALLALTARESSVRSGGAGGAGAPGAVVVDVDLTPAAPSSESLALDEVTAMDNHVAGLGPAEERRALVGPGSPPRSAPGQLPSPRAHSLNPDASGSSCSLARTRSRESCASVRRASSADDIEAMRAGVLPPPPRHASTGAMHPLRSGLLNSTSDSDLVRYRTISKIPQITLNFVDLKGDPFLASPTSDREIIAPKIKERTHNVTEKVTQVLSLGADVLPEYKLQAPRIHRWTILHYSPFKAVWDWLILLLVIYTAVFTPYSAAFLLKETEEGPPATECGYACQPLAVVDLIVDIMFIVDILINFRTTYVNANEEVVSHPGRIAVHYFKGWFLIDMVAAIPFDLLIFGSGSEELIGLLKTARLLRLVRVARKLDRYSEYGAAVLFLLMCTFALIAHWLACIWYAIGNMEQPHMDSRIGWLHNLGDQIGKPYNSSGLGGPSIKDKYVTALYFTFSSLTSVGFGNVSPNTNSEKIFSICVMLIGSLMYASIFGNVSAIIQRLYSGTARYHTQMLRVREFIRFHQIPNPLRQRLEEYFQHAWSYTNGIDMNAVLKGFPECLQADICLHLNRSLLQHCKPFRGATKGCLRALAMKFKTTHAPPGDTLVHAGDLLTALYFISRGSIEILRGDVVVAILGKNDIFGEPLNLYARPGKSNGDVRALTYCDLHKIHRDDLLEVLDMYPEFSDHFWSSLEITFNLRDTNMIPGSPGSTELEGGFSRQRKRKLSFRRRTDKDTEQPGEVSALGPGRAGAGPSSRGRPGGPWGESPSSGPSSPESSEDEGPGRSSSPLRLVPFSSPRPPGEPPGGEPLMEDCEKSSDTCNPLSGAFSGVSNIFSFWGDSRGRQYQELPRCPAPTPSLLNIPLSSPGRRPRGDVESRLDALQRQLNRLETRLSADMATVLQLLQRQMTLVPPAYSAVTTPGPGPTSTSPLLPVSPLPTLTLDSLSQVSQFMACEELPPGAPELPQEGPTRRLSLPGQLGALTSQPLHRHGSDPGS

Compared with `CCc1ccc(NC(=O)C(=O)NCCN2CCN(C(=O)c3ccco3)CC2)cc1`, `CCOC(=O)N1CCN(C(=O)c2ccc(OC)cc2)CC1` is higher in “hERG current change (%, negative = inhibition) at 1uM” value: -49.1% for the first, 8.91% for the second.

Compared with `Cc1cc(C)nc(N2CCC(C(=O)Nc3ccc4c(c3)OCO4)CC2)n1`, `Cc1c(C(=O)NCc2ccc3c(c2)OCO3)oc2ccccc12` is higher in “hERG current change (%, negative = inhibition) at 1uM” value: 1.95% for the first, 8.9% for the second.

First: Cc1cccc(C)c1NC(=O)c1cc2c(=O)c3ccccc3oc2nc1C(F)(F)F
Second: Cc1nn(Cc2cccc3ccccc23)c(C)c1NC(=O)c1cccnc1
The “hERG current change (%, negative = inhibition) at 1uM” value of the first is lower: -3.29% for the first, 11.2% for the second.

Going from `COc1ccc(C)cc1NS(=O)(=O)c1ccc(Cl)nc1` to `COc1ncccc1-c1nnn(-c2ccc(Cl)nc2)n1`, the “hERG current change (%, negative = inhibition) at 1uM” value rises from 6.69% to 13%.

First: CCN(CC)C(=O)c1ccc(-c2ccccc2)cc1
Second: CCCC(=O)n1nc(-c2ccccc2)nc1N
The “hERG current change (%, negative = inhibition) at 1uM” value of the first is higher: 12.4% for the first, 8.89% for the second.

Compared with `O=C1NC(=S)S/C1=C/c1ccc(OC(=O)c2ccco2)cc1`, `Cc1ccc(C(=O)N/N=C/c2ccc(OC(=O)c3ccccc3Cl)cc2)cn1` is lower in “hERG current change (%, negative = inhibition) at 1uM” value: 10.8% for the first, 6.07% for the second.

Going from `NS(=O)(=O)c1ccc(N/N=C/c2ccc[nH]2)c([N+](=O)[O-])c1` to `O=C(CNC(=O)c1ccccc1Br)N/N=C\c1cc([N+](=O)[O-])cc(Br)c1O`, the “hERG current change (%, negative = inhibition) at 1uM” value rises from 1.58% to 10.2%.

Compared with `CCc1nc(SCC(=O)c2c[nH]c3ccccc23)n[nH]1`, `Nc1cc(=O)[nH]c(SCC(=O)c2ccc(O)cc2O)n1` is lower in “hERG current change (%, negative = inhibition) at 1uM” value: 11.8% for the first, 9.82% for the second.

First: O=C(NC1CC1)C1CCN(S(=O)(=O)c2ccc(Cl)c([N+](=O)[O-])c2)CC1
Second: O=S(=O)(c1ccccc1)c1cccc(S(=O)(=O)N2CCCCC2)c1
The “hERG current change (%, negative = inhibition) at 1uM” value of the first is higher: 4% for the first, 3.89% for the second.

Compared with `Cn1c(C(C#N)C(=O)c2ccco2)nc2ccccc21` (centres unmarked), `Cc1ccc(Cn2c(NC(=O)c3ccco3)nc3ccccc32)cc1` is higher in “hERG current change (%, negative = inhibition) at 1uM” value: 13.4% for the first, 15.4% for the second.

Going from `CCC[C@H](N[C@@H](C)C(=O)N1[C@H](C(=O)O)C[C@@H]2CCCC[C@@H]21)C(=O)OCC` to `CCOC(=O)c1c(NC(=O)C2CCCO2)sc(C(N)=O)c1C` (centres unmarked), the “hERG current change (%, negative = inhibition) at 1uM” value falls from 16.5% to 6.24%.

Compared with `CCOCCCNC(=O)C(c1ccc(OC)cc1)N(Cc1ccc2c(c1)OCO2)C(=O)c1cnccn1` (centres unmarked), `COc1ccc(CNC(=O)C2CC(c3ccc(OC)cc3)=NO2)cc1` (centres unmarked) is higher in “hERG current change (%, negative = inhibition) at 1uM” value: 7.66% for the first, 14.3% for the second.

First: CC(C)c1nc2sc3c(SCC(N)=O)ncnc3c2c2c1CCC2
Second: CC(C)c1nc2cc(C(=O)N3CCN(c4cnccn4)CC3)ccc2o1
The “hERG current change (%, negative = inhibition) at 1uM” value of the first is higher: 10.8% for the first, 6.86% for the second.

Compared with `Cc1nc(SCC(=O)N2CCN(c3ccccc3)CC2)c2oc3ccccc3c2n1`, `Cc1cc(=O)oc2cc(OCC(O)CN3CCN(c4ccccc4)CC3)ccc12.Cl` (centres unmarked) is lower in “hERG current change (%, negative = inhibition) at 1uM” value: 0.726% for the first, -6.39% for the second.

Compared with `C=CCOc1cccc(C2C(C(=O)c3cccs3)=C(O)C(=O)N2Cc2cccnc2)c1` (centres unmarked), `O=C(C1=C(O)C(=O)N(c2nc3ccc(Cl)cc3s2)C1c1ccco1)c1ccco1` (centres unmarked) is lower in “hERG current change (%, negative = inhibition) at 1uM” value: 2.04% for the first, -0.241% for the second.

Compared with `C#CCOCCOCCOCCNc1nc(N2CCN(C(=O)[C@H](Cc3ccc(O)cc3)n3cc([C@@H](N)CC(C)C)nn3)CC2)nc(N2CCN(C(=O)[C@H](Cc3cc4ccccc4[nH]3)n3cc([C@@H](N)CC(C)C)nn3)CC2)n1.Cl`, `COc1cccc(N2CCN(C(=O)c3ccc(N4C(=O)NC5CC4(C)Oc4ccccc45)cc3)CC2)c1` (centres unmarked) is lower in “hERG current change (%, negative = inhibition) at 1uM” value: 13.1% for the first, 12.7% for the second.

First: FC(F)(F)C1CC(c2cccs2)Nc2ncnn21 (centres unmarked)
Second: O=c1[nH]ncn2cccc12
The “hERG current change (%, negative = inhibition) at 1uM” value of the first is lower: 1.93% for the first, 12% for the second.

First: O=C1c2ccccc2C(=O)N1CCC(c1ccc(F)cc1)c1ccco1 (centres unmarked)
Second: O=C(COc1ccc2ccccc2c1)N[C@@H](C(=O)O)c1ccc(O)cc1
The “hERG current change (%, negative = inhibition) at 1uM” value of the first is lower: -1.72% for the first, 12% for the second.

First: Cc1cccc(NC(=S)Nc2ccc(N3CCOCC3)cc2)c1C
Second: Cc1ccc(-c2ccc(/C=C3\SC(N4CCOCC4)=NC3=O)o2)cc1
The “hERG current change (%, negative = inhibition) at 1uM” value of the first is higher: 11.8% for the first, -54.6% for the second.

Compared with `Cn1cc(CN2CCC(CO)CC2)c(-c2ccc(Oc3ccccc3)cc2)n1`, `COc1ccc(-c2noc(C3CCCN(C(=O)CCc4ccccc4)C3)n2)cc1` (centres unmarked) is higher in “hERG current change (%, negative = inhibition) at 1uM” value: -20.3% for the first, -9.88% for the second.

Going from `CCCCCCCOc1ccc(OC(=O)c2cccnc2)cc1` to `COc1ccc(-n2c(COc3cccc(C)c3)n[nH]c2=S)cc1`, the “hERG current change (%, negative = inhibition) at 1uM” value rises from 9.35% to 16.8%.

Compared with `NC(=S)NCc1cccnc1`, `O=C(c1ccc(Cl)c(S(=O)(=O)NCc2cccnc2)c1)N1CCCC1` is lower in “hERG current change (%, negative = inhibition) at 1uM” value: 12.8% for the first, 10.1% for the second.

Compared with `C(=N\c1ncnc2sccc12)/NOCc1ccccc1`, `CCCc1nc2ccccc2c(=O)n1/N=C/c1ccc(O)cc1` is higher in “hERG current change (%, negative = inhibition) at 1uM” value: 5.55% for the first, 11.1% for the second.

Compared with `COC(=O)c1ccc(CSc2nnnn2-c2ccc(C)cc2C)o1`, `Cc1cc(NC(=O)CSc2nnc(-c3ccccc3Cl)o2)no1` is higher in “hERG current change (%, negative = inhibition) at 1uM” value: 1.4% for the first, 16.1% for the second.

Compared with `Cc1cc(NC(=O)C2C3C(=O)N(Cc4ccc(Cl)cc4)C(C(=O)NC(C)(C)C)C34C=CC2(C)O4)no1` (centres unmarked), `Cc1cccc(N(CC(=O)NC(C)(C)C)C(=O)CNC(=O)c2cccs2)c1C` is lower in “hERG current change (%, negative = inhibition) at 1uM” value: 14.2% for the first, 7.7% for the second.

Compared with `O=C(CSc1ncnc2c1cnn2-c1ccccc1)NC1CCS(=O)(=O)C1` (centres unmarked), `Cc1cc2ccccc2c(=O)n1CC(=O)NCCC1=CCCCC1` is higher in “hERG current change (%, negative = inhibition) at 1uM” value: 3.51% for the first, 9.27% for the second.

Compared with `O=C(OCC(=O)c1ccccc1Br)c1ccccn1`, `O=c1ccccn1CCOc1ccccc1Cl` is lower in “hERG current change (%, negative = inhibition) at 1uM” value: 8.25% for the first, 1.88% for the second.

Going from `COc1ccc(OC)c(NC(=O)CN2CCc3ccccc3C2)c1` to `COc1ccc(-n2c(Cc3cccn3C)nnc2SCC(=O)Nc2cc(Cl)ccc2OC)cc1`, the “hERG current change (%, negative = inhibition) at 1uM” value falls from 11.5% to -50.9%.

Compared with `O=C1NC(c2ccccc2)=C(c2nc3ccccc3s2)C(c2ccccc2)N1` (centres unmarked), `Cc1[nH]n(-c2ccccc2)c(=O)c1C(=O)c1ccccc1` is higher in “hERG current change (%, negative = inhibition) at 1uM” value: -3.46% for the first, 12.7% for the second.

First: CCO[C@H]1OC(C(=O)N2CCN(Cc3ccc4c(c3)OCO4)CC2)=C[C@@H](C(C)(C)C)[C@@H]1CCCO
Second: CC(C)CN(C(=O)CN1CCN(c2ccc(F)cc2)CC1)c1c(N)n(CC(C)C)c(=O)[nH]c1=O
The “hERG current change (%, negative = inhibition) at 1uM” value of the first is lower: 8.11% for the first, 9.55% for the second.

Going from `C=CCn1c(Cc2ccc(OC)cc2)nnc1SCc1nc2ccccc2c(=O)[nH]1` to `CC(C)CCn1c(SCC(=O)OCn2nnc3ccccc3c2=O)nc2ccccc2c1=O`, the “hERG current change (%, negative = inhibition) at 1uM” value falls from 4.92% to 2.3%.

First: COc1ccc(-n2c(C)c(C(C)=O)c3cc(OCC(N)=O)ccc32)cc1
Second: CCOC(=O)c1c(C)n(C)c2ccc(OCC(O)CNC(CC)CO)cc12 (centres unmarked)
The “hERG current change (%, negative = inhibition) at 1uM” value of the first is higher: 6.75% for the first, -6.21% for the second.

Going from `CCC(=O)NC(=S)NNC(=O)COc1ccc(Br)cc1` to `Cc1ccc(NC(=O)CSCC(=O)OCc2cc(=O)oc3cc(O)ccc23)c(C)c1`, the “hERG current change (%, negative = inhibition) at 1uM” value rises from -10.2% to -9.3%.

Compared with `Cc1cc(Br)ccc1N=C1C(=O)Nc2ccccc21`, `CCC1(C)Cc2ccccc2-c2[nH]c(=S)[nH]c(=O)c21` (centres unmarked) is higher in “hERG current change (%, negative = inhibition) at 1uM” value: 14.2% for the first, 15.9% for the second.

Compared with `Cc1cc(OC(C)C(=O)NC(Cc2c[nH]c3ccc(O)cc23)C(=O)O)c2c(C)cc(=O)oc2c1` (centres unmarked), `Cc1c(C(=O)OCC(=O)Nc2ccc(C(=O)N(C)C)cc2)oc2ccccc12` is higher in “hERG current change (%, negative = inhibition) at 1uM” value: -0.679% for the first, 4.41% for the second.

Going from `CCOc1ccc(OCC)c(S(=O)(=O)n2ccnc2C)c1` to `CCOc1cc(N2CCOCC2)c(OCC)cc1NC(=O)CN1CCCC(C)C1` (centres unmarked), the “hERG current change (%, negative = inhibition) at 1uM” value falls from 8.83% to -2.17%.

Compared with `COc1ccccc1C(=O)Nc1ccc2c(c1)CCCN2C(=O)c1ccccc1`, `CC(C)(C)N(NC(=O)c1ccccc1)C(=O)c1ccccc1` is lower in “hERG current change (%, negative = inhibition) at 1uM” value: 2.02% for the first, -4.16% for the second.

Compared with `Cc1ccc(-c2nc(C#N)c(NCc3cccc4c3OCO4)o2)cc1`, `Cc1nn(Cc2ccc(F)cc2)c(C)c1NC(=O)c1cccnc1Cl` is higher in “hERG current change (%, negative = inhibition) at 1uM” value: -4.65% for the first, 17.6% for the second.

First: COc1ccc(C(=O)C2CCCN(C(=O)c3ccc(OC)o3)C2)c(C)c1 (centres unmarked)
Second: COc1cccc(C(=O)C2CCCN(Cc3ccc4nsnc4c3)C2)c1 (centres unmarked)
The “hERG current change (%, negative = inhibition) at 1uM” value of the first is lower: -0.475% for the first, 5.66% for the second.

Compared with `O=C(CN1CCOCC1)Nc1ccccc1Cl`, `O=C(COc1ccccc1Cl)Nc1cc(NC(=O)COc2ccccc2Cl)cc(C(=O)O)c1` is higher in “hERG current change (%, negative = inhibition) at 1uM” value: 1.49% for the first, 1.69% for the second.

Compared with `O=C(C1CCC(=O)N1C1CCCCC1)N1CCN(c2ccc(F)cc2)CC1` (centres unmarked), `Nc1nc2cc(S(=O)(=O)NC3=NCCCCC3)ccc2s1` is higher in “hERG current change (%, negative = inhibition) at 1uM” value: 6.59% for the first, 10.1% for the second.

Going from `Nc1nc2ccccc2[nH]1` to `Cc1c2cnn(CC(=O)Nc3c(F)c(F)cc(F)c3F)c(=O)c2c(C)n1Cc1ccccc1F`, the “hERG current change (%, negative = inhibition) at 1uM” value falls from 15.5% to 6.47%.

First: Cc1ccc2nc(C)c(CN3CCN(c4ccc([N+](=O)[O-])cc4Cl)CC3)n2c1
Second: O=C(Nc1ccc(F)cc1)c1nc[nH]c1C(=O)Nc1ccc([N+](=O)[O-])cc1
The “hERG current change (%, negative = inhibition) at 1uM” value of the first is lower: 0.853% for the first, 15.8% for the second.

Source: article PMC4336329 (PLoS ONE, 2015)
